# Results taken from ChEMBL document CHEMBL4043168, “The design and SAR of a novel series of 2-aminopyridine based LRRK2 inhibitors” (Bioorg Med Chem Lett, 2017).
# What was measured:
# [1] = Intrinsic clearance in human liver microsomes; assay type: ADME, microsome; conditions: read-out: CLH (converted)
# [2] = molecular target: Calcium/calmodulin-dependent protein kinase type II subunit gamma (Homo sapiens) (UniProt Q13555); experiment: Inhibition of CaMK2g labeling at conserved Lys1 (TSTQEYAAKIINTK) in human PBMC at 1 uM
# UniProt Q13555, sequence (Q13555 whole entry): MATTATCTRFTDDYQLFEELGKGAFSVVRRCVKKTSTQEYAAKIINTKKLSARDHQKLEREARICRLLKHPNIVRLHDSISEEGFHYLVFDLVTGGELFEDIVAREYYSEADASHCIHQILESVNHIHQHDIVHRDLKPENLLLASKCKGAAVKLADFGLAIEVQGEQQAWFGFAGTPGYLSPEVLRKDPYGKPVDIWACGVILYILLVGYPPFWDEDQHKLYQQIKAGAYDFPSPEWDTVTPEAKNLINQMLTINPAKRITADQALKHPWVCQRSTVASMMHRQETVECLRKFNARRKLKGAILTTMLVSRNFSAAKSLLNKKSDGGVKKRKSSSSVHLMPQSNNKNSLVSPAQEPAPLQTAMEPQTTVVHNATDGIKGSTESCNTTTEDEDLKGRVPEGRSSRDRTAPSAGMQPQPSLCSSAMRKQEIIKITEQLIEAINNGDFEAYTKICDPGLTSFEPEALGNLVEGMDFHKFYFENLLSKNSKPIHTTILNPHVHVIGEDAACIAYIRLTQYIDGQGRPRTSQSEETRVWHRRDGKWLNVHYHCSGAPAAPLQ
# [3] = molecular target: Cyclin-dependent kinase 1 (Homo sapiens) (UniProt P06493); experiment: Inhibition of CDC2 labeling at conserved Lys2 (DLKPQNLLIDDK) in human PBMC at 1 uM
# UniProt P06493, sequence (P06493 whole entry, looked up): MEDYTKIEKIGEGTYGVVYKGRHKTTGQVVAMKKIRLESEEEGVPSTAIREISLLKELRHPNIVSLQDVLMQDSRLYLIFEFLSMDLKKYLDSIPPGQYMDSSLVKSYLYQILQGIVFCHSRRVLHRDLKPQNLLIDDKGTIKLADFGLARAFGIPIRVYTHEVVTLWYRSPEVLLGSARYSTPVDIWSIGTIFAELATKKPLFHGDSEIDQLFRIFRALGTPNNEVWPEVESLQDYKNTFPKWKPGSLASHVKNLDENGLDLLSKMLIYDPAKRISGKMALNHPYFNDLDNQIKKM
# [4] = molecular target: Serine/threonine-protein kinase mTOR (Homo sapiens) (UniProt P42345); experiment: Inhibition of FRAP conserved Lys1 (IQSIAPSLQVITSKQRPR) in human PBMC at 1 uM
# [5] = molecular target: Tyrosine-protein kinase Fyn (Homo sapiens) (UniProt P06241); experiment: Inhibition of FYN activation Loop (QGAKFPIKWTAPEAALYGR) in human PBMC at 1 uM
# [6] = molecular target: T1, Scaffold protein ILK (Homo sapiens) (UniProt Q13418); experiment: Inhibition of ILK Protein Kinase Domain (ISMADVKFSFQCPGR) in human PBMC at 1 uM
# T1 sequence (whole entry): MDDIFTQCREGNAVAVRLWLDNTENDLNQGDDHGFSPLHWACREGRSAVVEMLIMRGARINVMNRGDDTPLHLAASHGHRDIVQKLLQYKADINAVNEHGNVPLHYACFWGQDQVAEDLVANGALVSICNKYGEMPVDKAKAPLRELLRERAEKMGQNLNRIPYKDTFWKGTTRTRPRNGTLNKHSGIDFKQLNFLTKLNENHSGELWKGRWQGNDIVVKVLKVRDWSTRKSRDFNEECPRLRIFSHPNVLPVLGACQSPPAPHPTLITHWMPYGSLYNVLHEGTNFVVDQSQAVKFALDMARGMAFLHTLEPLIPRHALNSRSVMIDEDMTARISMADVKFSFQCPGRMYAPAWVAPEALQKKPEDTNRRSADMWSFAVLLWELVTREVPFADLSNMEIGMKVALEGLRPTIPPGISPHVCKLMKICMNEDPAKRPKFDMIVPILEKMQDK
# [7] = molecular target: Kinase suppressor of Ras 1 (Homo sapiens) (UniProt Q8IVT5); experiment: Inhibition of KSR1 activation Loop (SKNVFYDNGKVVITDFGLFGISGVVR) in human PBMC at 1 uM
# [8] = molecular target: Serine/threonine-protein kinase MARK2 (Homo sapiens) (UniProt Q7KZI7); experiment: Inhibition of MARK2 conserved Lys2 (DLKAENLLLDADMNIK) in human PBMC at 1 uM
# [9] = molecular target: Mitogen-activated protein kinase kinase kinase 11 (Homo sapiens) (UniProt Q16584); experiment: Inhibition of MLK3 conserved Lys2 (DLKSNNILLLQPIESDDMEHK) in human PBMC at 1 uM
# [10] = molecular target: Serine/threonine-protein kinase 26 (Homo sapiens) (UniProt Q9P289); experiment: Inhibition of MST4 conserved Lys2 (DIKAANVLLSEQGDVK) in human PBMC at 1 uM
# UniProt Q9P289, sequence (Q9P289 whole entry, looked up): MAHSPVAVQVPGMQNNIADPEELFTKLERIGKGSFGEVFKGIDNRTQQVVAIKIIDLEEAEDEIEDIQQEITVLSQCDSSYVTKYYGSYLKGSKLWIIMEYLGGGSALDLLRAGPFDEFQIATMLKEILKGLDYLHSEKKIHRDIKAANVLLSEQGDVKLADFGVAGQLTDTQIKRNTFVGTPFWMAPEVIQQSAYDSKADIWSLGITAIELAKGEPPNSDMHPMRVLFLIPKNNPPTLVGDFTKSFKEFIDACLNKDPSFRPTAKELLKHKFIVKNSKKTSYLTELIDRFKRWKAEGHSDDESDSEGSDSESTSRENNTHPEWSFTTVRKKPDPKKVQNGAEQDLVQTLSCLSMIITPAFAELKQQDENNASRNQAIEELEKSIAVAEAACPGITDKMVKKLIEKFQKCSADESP
# [11] = molecular target: Serine/threonine-protein kinase Nek9 (Homo sapiens) (UniProt Q8TD19); experiment: Inhibition of NEK9 conserved Lys1 (RTEDDSLVVWKEVDLTR) in human PBMC at 1 uM
# [12] = molecular target: Phosphatidylinositol 5-phosphate 4-kinase type-2 alpha (Homo sapiens) (UniProt P48426); experiment: Inhibition of PIP4K2A ATP binding site (AKELPTLKDNDFINEGQK) in human PBMC at 1 uM
# [13] = molecular target: Ribosomal protein S6 kinase alpha-1 (Homo sapiens) (UniProt Q15418); experiment: Inhibition of RSK1 domain1 activation Loop (LTDFGLSKEAIDHEKK) in human PBMC at 1 uM
# [14] = molecular target: Ribosomal protein S6 kinase alpha-2 (Homo sapiens) (UniProt Q15349); experiment: Inhibition of RSK3 domain1 conserved Lys2 (DLKPENILLDEEGHIKITDFGLSK) in human PBMC at 1 uM
# [15] = molecular target: Mitogen-activated protein kinase kinase kinase 20 (Homo sapiens) (UniProt Q9NYL2); experiment: Inhibition of ZAK conserved Lys1 (WISQDKEVAVKK) in human PBMC at 1 uM
# UniProt Q9NYL2, sequence (Q9NYL2 whole entry, looked up): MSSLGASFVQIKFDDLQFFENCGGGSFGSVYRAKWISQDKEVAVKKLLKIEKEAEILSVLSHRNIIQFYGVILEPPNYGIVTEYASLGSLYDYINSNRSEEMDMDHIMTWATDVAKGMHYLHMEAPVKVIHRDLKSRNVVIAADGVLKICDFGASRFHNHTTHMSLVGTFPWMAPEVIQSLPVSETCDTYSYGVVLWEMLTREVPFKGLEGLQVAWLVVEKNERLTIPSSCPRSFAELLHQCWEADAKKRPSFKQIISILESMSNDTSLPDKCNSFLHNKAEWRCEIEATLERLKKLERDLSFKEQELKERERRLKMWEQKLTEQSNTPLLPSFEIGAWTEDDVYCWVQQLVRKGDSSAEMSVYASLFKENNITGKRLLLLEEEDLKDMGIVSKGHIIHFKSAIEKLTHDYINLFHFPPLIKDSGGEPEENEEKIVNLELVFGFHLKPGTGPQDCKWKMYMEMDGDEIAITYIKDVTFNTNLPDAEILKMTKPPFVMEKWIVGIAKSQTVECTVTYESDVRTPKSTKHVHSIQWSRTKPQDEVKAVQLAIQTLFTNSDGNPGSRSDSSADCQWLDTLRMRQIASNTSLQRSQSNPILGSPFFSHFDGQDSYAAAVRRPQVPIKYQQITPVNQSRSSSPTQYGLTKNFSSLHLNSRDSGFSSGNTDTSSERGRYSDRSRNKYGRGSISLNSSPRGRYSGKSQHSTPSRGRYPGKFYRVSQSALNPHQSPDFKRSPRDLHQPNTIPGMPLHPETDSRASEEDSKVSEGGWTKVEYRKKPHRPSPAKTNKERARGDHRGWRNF
# [16] = molecular target: Mitogen-activated protein kinase kinase kinase kinase 4 (Homo sapiens) (UniProt O95819); experiment: Inhibition of ZC1/HGK conserved Lys2 (DIKGQNVLLTENAEVK) in human PBMC at 1 uM
# [17] = molecular target: Tyrosine-protein kinase ABL2 (Homo sapiens) (UniProt P42684); experiment: Inhibition of ARG labeling at conserved Lys1 (LMTGDTYTAHAGAKFPIK) in human PBMC at 0.1 uM
# [18] = molecular target: RAC-gamma serine/threonine-protein kinase (Homo sapiens) (UniProt Q9Y243); experiment: Inhibition of AKT3 labeling at conserved Lys1 (IGHYILGDTLGVGTFGKVK) in human PBMC at 0.1 uM
# [19] = molecular target: 5'-AMP-activated protein kinase catalytic subunit alpha-1 (Homo sapiens) (UniProt Q13131); experiment: Inhibition of AMPKa1 labeling at conserved Lys2 (DLKPENVLLDAHMNAK) in human PBMC at 0.1 uM
# UniProt Q13131, sequence (Q13131 whole entry, looked up): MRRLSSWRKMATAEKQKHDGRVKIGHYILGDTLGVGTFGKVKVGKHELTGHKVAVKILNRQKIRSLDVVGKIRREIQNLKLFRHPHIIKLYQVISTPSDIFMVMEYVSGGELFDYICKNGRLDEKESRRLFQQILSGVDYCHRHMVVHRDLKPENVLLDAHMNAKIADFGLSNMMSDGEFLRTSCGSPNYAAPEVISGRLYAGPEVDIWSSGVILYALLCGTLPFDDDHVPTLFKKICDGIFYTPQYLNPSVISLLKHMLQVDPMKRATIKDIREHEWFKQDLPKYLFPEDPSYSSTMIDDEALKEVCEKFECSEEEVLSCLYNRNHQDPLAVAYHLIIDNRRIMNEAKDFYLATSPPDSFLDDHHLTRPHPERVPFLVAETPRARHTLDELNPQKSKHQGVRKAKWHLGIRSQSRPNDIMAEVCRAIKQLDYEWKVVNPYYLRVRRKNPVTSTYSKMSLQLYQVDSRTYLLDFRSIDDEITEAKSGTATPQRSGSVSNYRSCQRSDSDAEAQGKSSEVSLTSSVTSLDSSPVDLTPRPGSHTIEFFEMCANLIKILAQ
# [20] = molecular target: Calcium/calmodulin-dependent protein kinase type 1 (Homo sapiens) (UniProt Q14012); experiment: Inhibition of CaMK1a labeling at conserved Lys1 (LVAIKCIAK) in human PBMC at 0.1 uM
# UniProt Q14012, sequence (Q14012 whole entry, looked up): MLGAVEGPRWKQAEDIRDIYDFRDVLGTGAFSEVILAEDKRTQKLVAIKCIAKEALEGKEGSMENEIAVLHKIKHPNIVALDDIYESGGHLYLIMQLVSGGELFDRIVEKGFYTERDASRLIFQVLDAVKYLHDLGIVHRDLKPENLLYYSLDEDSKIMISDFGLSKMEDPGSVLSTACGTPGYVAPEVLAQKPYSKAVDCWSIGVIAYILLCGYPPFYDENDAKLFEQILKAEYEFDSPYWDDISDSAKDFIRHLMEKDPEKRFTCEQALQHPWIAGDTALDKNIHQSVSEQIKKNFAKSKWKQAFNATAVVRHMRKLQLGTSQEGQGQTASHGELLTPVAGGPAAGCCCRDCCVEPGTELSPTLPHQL
# [21] = molecular target: Calcium/calmodulin-dependent protein kinase type II subunit beta (Homo sapiens) (UniProt Q13554); experiment: Inhibition of CaMK2b labeling at conserved Lys2 (DLKPENLLLASK) in human PBMC at 0.1 uM
# [22] = molecular target: Serine/threonine-protein kinase mTOR (Homo sapiens) (UniProt P42345); experiment: Inhibition of FRAP conserved Lys1 (IQSIAPSLQVITSKQRPR) in human PBMC at 0.1 uM
# [23] = molecular target: eIF-2-alpha kinase GCN2 (Homo sapiens) (UniProt Q9P2K8); experiment: Inhibition of GCN2 conserved Lys2 (DLKPVNIFLDSDDHVK) in human PBMC at 0.1 uM
# UniProt Q9P2K8, sequence (Q9P2K8 whole entry): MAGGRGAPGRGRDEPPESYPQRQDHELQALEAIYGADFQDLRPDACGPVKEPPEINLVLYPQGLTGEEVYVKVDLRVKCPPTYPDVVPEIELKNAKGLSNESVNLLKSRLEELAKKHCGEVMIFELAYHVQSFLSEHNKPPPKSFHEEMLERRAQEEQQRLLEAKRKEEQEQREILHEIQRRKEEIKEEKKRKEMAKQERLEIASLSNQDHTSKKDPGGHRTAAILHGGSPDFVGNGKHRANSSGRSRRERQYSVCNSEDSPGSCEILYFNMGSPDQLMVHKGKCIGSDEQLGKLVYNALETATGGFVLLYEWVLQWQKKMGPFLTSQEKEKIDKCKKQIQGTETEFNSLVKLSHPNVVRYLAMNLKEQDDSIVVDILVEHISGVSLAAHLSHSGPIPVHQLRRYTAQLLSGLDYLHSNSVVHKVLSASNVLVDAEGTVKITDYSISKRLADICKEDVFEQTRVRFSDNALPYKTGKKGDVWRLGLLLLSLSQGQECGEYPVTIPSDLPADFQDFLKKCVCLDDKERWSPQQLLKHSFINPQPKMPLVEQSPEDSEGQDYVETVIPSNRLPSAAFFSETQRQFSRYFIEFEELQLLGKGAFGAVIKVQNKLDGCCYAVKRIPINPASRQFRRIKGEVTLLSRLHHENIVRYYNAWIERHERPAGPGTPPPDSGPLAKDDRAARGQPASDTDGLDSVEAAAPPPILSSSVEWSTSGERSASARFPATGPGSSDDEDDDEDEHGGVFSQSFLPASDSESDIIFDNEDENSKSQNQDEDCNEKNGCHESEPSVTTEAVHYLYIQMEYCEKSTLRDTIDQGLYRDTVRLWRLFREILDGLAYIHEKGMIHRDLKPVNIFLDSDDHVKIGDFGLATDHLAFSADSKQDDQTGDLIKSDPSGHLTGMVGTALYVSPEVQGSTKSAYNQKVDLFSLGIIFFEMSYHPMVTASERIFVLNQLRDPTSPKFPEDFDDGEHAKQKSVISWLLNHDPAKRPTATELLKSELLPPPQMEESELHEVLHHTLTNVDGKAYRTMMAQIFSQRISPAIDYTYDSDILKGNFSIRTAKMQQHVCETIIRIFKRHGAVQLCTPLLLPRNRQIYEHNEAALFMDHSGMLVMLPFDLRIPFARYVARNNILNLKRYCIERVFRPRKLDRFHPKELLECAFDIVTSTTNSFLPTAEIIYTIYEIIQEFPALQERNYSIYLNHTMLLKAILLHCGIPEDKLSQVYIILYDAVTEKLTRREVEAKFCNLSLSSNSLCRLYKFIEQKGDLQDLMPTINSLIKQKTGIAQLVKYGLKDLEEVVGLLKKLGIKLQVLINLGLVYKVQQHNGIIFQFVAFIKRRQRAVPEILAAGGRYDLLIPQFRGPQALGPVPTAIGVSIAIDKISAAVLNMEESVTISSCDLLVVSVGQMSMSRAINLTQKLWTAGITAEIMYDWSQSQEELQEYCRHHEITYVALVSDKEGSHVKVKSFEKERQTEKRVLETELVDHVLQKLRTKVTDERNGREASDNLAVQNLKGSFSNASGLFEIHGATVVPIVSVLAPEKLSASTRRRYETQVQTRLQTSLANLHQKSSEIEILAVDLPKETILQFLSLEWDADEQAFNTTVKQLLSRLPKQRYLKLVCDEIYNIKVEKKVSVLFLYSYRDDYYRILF
# [24] = molecular target: MAP kinase-activated protein kinase 3 (Homo sapiens) (UniProt Q16644); experiment: Inhibition of MAPKAPK3 ATP binding site (QVLGLGVNGKVLECFHR) in human PBMC at 0.1 uM
# UniProt Q16644, sequence (Q16644 whole entry, looked up): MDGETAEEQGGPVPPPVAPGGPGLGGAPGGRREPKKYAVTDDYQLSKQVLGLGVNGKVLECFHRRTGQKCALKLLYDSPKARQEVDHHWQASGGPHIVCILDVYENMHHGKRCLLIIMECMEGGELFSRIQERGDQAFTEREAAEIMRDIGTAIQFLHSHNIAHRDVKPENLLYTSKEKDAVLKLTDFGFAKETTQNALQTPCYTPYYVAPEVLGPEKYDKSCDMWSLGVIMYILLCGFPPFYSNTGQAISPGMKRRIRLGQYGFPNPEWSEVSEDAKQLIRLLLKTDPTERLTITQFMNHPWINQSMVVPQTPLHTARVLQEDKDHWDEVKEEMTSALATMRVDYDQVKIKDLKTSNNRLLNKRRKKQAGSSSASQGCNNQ
# [25] = molecular target: Cyclin-dependent kinase 16 (Homo sapiens) (UniProt Q00536); experiment: Inhibition of PCTAIRE1 conserved Lys2 (DLKPQNLLINER) in human PBMC at 0.1 uM
# [26] = molecular target: Serine/threonine-protein kinase SMG1 (Homo sapiens) (UniProt Q96Q15); experiment: Inhibition of SMG1 ATP binding site (DTVTIHSVGGTITILPTKTKPK) in human PBMC at 0.1 uM
# [27] = molecular target: Serine/threonine-protein kinase 32C (Homo sapiens) (UniProt Q86UX6); experiment: Inhibition of YANK3 conserved Lys2 (DVKPDNILLDER) in human PBMC at 0.1 uM
compound,measurement,setting,value
CC(C)n1cc(-c2cc(-c3ccc(CN4CCOCC4)cc3)cnc2N)nn1,CLint scaled,[1],1.2 L/h/kg
same,inhibition,[2],-2.1%
same,inhibition,[3],2.5%
same,inhibition,[4],7.3%
same,inhibition,[5],-2.3%
same,inhibition,[6],7.7%
same,inhibition,[7],5.7%
same,inhibition,[8],28.8%
same,inhibition,[9],-5.2%
same,inhibition,[10],9.9%
same,inhibition,[11],10.4%
same,inhibition,[12],13.4%
same,inhibition,[13],14.3%
same,inhibition,[14],20.3%
same,inhibition,[15],8%
same,inhibition,[16],29.1%
same,inhibition,[17],-5.2%
same,inhibition,[18],17.1%
same,inhibition,[19],14%
same,inhibition,[20],-7.6%
same,inhibition,[21],-7.5%
same,inhibition,[22],10.9%
same,inhibition,[23],-3.3%
same,inhibition,[24],9.4%
same,inhibition,[25],-6.4%
same,inhibition,[26],-2.4%
same,inhibition,[27],9.8%
